# Measured values taken from the supplement of paper PMC4604168 (melanoma cell lines).
# Some of the results follow. Many values rest on one well or one pass, so single values are uncertain.
# What was measured:
# Experiment in all cases: cell count relative to DMSO control; melanoma cells; higher = more viable cells
# Conditions in all cases: library dose: standard library concentration; 72 h
# G361 = test system: G361
# IPC-298 = test system: IPC-298
# IST-MEL1 = test system: IST-MEL1
# LB2518-MEL = test system: LB2518-MEL
# LOXIMVI = test system: LOXIMVI
# MEL-HO = test system: MEL-HO
# MZ2-MEL = test system: MZ2-MEL
# MeWo = test system: MeWo
# RPMI7951 = test system: RPMI7951
# RVH-421 = test system: RVH-421
# SkMel28 = test system: SkMel28
# SkMel2 = test system: SkMel2
# SkMel30 = test system: SkMel30
# SkMel5 = test system: SkMel5
# UACC257 = test system: UACC257
# UACC62 = test system: UACC62
# WM115 = test system: WM115
# WM1716 = test system: WM1716
# WM1745 = test system: WM1745
# WM3526 = test system: WM3526
# 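Also: cells treated in 1,536-well plates, then fixed and DAPI-stained, with nuclei counted from automated high-throughput microscope images.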
SMILES,cell count (G361),cell count (IPC-298),cell count (IST-MEL1),cell count (LB2518-MEL),cell count (LOXIMVI),cell count (MEL-HO),cell count (MZ2-MEL),cell count (MeWo),cell count (RPMI7951),cell count (RVH-421),cell count (SkMel28),cell count (SkMel2),cell count (SkMel30),cell count (SkMel5),cell count (UACC257),cell count (UACC62),cell count (WM115),cell count (WM1716),cell count (WM1745),cell count (WM3526)
"Nc1cccc2c1CN(C1CCC(=O)NC1=O)C2=O (stereo not given) [lenalidomide] + O=C(CCCCCCC(=O)Nc1ccccc1)NO [vorinostat] (first compound 5 µM, partner dose 0.4 µM)",71%,107%,111%,70.2%,71%,86.2%,117%,73.5%,59.4%,103%,35.8%,77.9%,92.9%,60.4%,61.7%,66.5%,59.6%,76.4%,86%,64.9%
"COCC[n+]1c2c(n(Cc3cnccn3)c1C)C(=O)c1ccccc1C2=O + N#Cc1c(O)c2c(-c3ccc(-c4ccccc4O)cc3)csc2[nH]c1=O [A769662] (first compound 0.002 µM, partner dose 10 µM)",84.5%,64.1%,44.4%,51%,101%,97.8%,44.6%,96.1%,37%,110%,72.1%,49.7%,48.1%,58%,25.7%,85.7%,97.8%,65.3%,98.7%,49.5%
"O=C(CCCCCCC(=O)Nc1ccccc1)NO [vorinostat] + NC(=O)Nc1cc(-c2cccc(F)c2)sc1C(=O)N[C@H]1CCCNC1 [AZD7762] (first compound 0.4 µM, partner dose 0.1 µM)",60.9%,59.4%,83.2%,57.2%,84.8%,71.6%,124%,55.8%,21.4%,147%,23.7%,79.4%,63.3%,55.1%,83.9%,53.2%,71.9%,64.8%,66.3%,44.1%
"COCC[n+]1c2c(n(Cc3cnccn3)c1C)C(=O)c1ccccc1C2=O + C=CCn1c(=O)c2cnc(Nc3ccc(N4CCN(C)CC4)cc3)nc2n1-c1cccc(C(C)(C)O)n1 [MK1775] (first compound 0.002 µM, partner dose 0.1 µM)",75.1%,42%,49.2%,33.5%,40.9%,94.4%,26.9%,41%,42.3%,118%,30.7%,44.5%,52.9%,31.7%,22.1%,61%,55.2%,62.3%,72.3%,37.8%
"Cn1c(Nc2ccc(C(F)(F)F)cc2)nc2cc(Oc3ccnc(-c4ncc(C(F)(F)F)[nH]4)c3)ccc21 + O=S(=O)(c1ccccc1)N(CC(F)(F)F)c1ccc(C(O)(C(F)(F)F)C(F)(F)F)cc1 [T0901317] (first compound 0.4 µM, partner dose 7 µM)",26.9%,43.1%,80.1%,39.6%,79.1%,69.4%,60.8%,66.9%,38.1%,53.7%,29.7%,38.1%,66.9%,38%,63.8%,32.1%,37.9%,59.7%,49.3%,35.5%
"Clc1ccc(Nc2nnc(Cc3ccncc3)c3ccccc23)cc1 [vatalanib] + COc1cc2c(Oc3ccc4[nH]c(C)cc4c3F)ncnc2cc1OCCCN1CCCC1 [cediranib] (first compound 10 µM, partner dose 2 µM)",84.9%,75.3%,80.8%,104%,70.9%,88.1%,73.4%,81.7%,60.1%,71.2%,77.9%,78.2%,78.6%,66.7%,87.7%,80.6%,88.5%,83.5%,42.5%,84.1%
"Clc1ccc(Nc2nnc(Cc3ccncc3)c3ccccc23)cc1 [vatalanib] + Cc1ccc(NC(=O)c2cccc(N(C)C)c2)cc1NC(=O)c1ccc(O)cc1 [ZM336372] (first compound 10 µM, partner dose 10 µM)",77.7%,68.9%,72.2%,85.6%,67.7%,55.6%,62.4%,72.5%,75.6%,75.6%,61.9%,80.3%,98.4%,64.9%,84.7%,89.4%,107%,110%,37.6%,78.7%
"C#Cc1cccc(Nc2ncnc3cc(OCCOC)c(OCCOC)cc23)c1 [erlotinib] + Cn1cncc1[C@@](N)(c1ccc(Cl)cc1)c1ccc2c(c1)c(-c1cccc(Cl)c1)cc(=O)n2C [tipifarnib] (first compound 4 µM, partner dose 0.05 µM)",59.9%,65.7%,88.8%,36.9%,66.9%,86.7%,74%,65.1%,52.7%,58.6%,51.5%,80.9%,65.9%,52.7%,84.8%,41.9%,59.8%,55.3%,64.4%,76.7%
"C#Cc1cccc(Nc2ncnc3cc(OCCOC)c(OCCOC)cc23)c1 [erlotinib] + CCCCCCCCCCCC1=C(O)C(=O)C=C(O)C1=O [Embelin] (first compound 4 µM, partner dose 6 µM)",46.3%,53.6%,54.8%,62.7%,95.9%,69.6%,65.2%,74.2%,50.3%,64%,55.7%,83.8%,70.5%,57.9%,73.1%,84%,76%,70.1%,39.3%,54%
"O=C(CCCCCCC(=O)Nc1ccccc1)NO [vorinostat] + CC(C)CCN1c2nc(Nc3cc(F)c(O)c(F)c3)ncc2N(C)C(=O)C1C [BID1870] (first compound 0.4 µM, partner dose 1 µM)",68.1%,62%,84.2%,83.4%,61%,69.1%,96.5%,61.4%,61.3%,83.7%,43.3%,70.3%,86%,70.1%,71.1%,66%,86.9%,76.4%,102%,67.6%
"OCc1c[nH]c2ccccc12 [Indole-3-carbinol] + Cn1cncc1[C@@](N)(c1ccc(Cl)cc1)c1ccc2c(c1)c(-c1cccc(Cl)c1)cc(=O)n2C [tipifarnib] (first compound 4 µM, partner dose 0.05 µM)",80%,94%,88.5%,77.4%,81.7%,102%,98.2%,87.9%,73.8%,76.4%,59.6%,55.4%,93.2%,59.8%,103%,69.5%,58.4%,59.4%,120%,70.9%
"Nc1cccc2c1CN(C1CCC(=O)NC1=O)C2=O (stereo not given) [lenalidomide] + Cn1cc(/C=C2\C(=O)Nc3cccnc32)c2ccccc21 [GW441756] (first compound 5 µM, partner dose 2 µM)",98%,84.5%,110%,102%,108%,97.4%,84.6%,80.1%,85.1%,103%,87.3%,94.4%,91.2%,66%,78.6%,73.3%,85%,89.2%,61.2%,81.8%
"COCC[n+]1c2c(n(Cc3cnccn3)c1C)C(=O)c1ccccc1C2=O + Cn1nnc2c(C(N)=O)ncn2c1=O [temozolomide] (first compound 0.002 µM, partner dose 10 µM)",82.5%,48.9%,50%,22.4%,45.9%,94.6%,26.3%,31.7%,34.1%,100%,31.8%,39.1%,54.4%,28.2%,25.8%,42.9%,65.4%,51.5%,106%,35.2%
"Clc1ccc(Nc2nnc(Cc3ccncc3)c3ccccc23)cc1 [vatalanib] + C[C@]1(c2nc3c(C(N)=O)cccc3[nH]2)CCCN1 [Veliparib] (first compound 10 µM, partner dose 7 µM)",85.8%,69.9%,72%,70.3%,62.1%,68%,66.3%,63.8%,85.1%,85.6%,69.9%,88.4%,84.2%,66.5%,86%,66.6%,77.7%,77.3%,21.1%,58.5%
"O=C(CCCCCCC(=O)Nc1ccccc1)NO [vorinostat] + COc1cc2ncnc(Nc3ccc(Oc4ccccc4)cc3)c2cc1OC [SrcI1] (first compound 0.4 µM, partner dose 10 µM)",49.5%,74.1%,99.1%,109%,64.1%,84.2%,59.7%,57.7%,68.7%,110%,55%,74.2%,87.7%,55.5%,80.5%,56.6%,69.5%,79.2%,78.7%,62.2%
"COCC[n+]1c2c(n(Cc3cnccn3)c1C)C(=O)c1ccccc1C2=O + COc1cc(N2CCC(N3CCN(C)CC3)CC2)ccc1Nc1ncc(Cl)c(Nc2ccccc2S(=O)(=O)C(C)C)n1 [NVP-TAE684] (first compound 0.002 µM, partner dose 0.4 µM)",71.8%,41.2%,47.2%,17.1%,86.5%,82.3%,21.6%,50.4%,37.8%,95.6%,55.8%,21.7%,43.4%,33.6%,19.5%,77.7%,44%,66.3%,49.4%,22.3%
"C#Cc1cccc(Nc2ncnc3cc(OCCOC)c(OCCOC)cc23)c1 [erlotinib] + c1cc(-c2cnn3cc(-c4ccc(OCCN5CCCCC5)cc4)cnc23)ccn1 [Dorsomorphin] (first compound 4 µM, partner dose 2 µM)",41.8%,48.7%,104%,42.2%,81.8%,74.7%,52.5%,49.4%,60.7%,73.1%,40.4%,73.5%,61.6%,58.5%,73.7%,47.7%,51.6%,72.9%,38.2%,55%
